Experimental data reported in the supplement of paper PMC10338343.
± gives the standard deviation. Only a part is listed here, and it is no random draw.

Each sequence was assayed on MIWI (PIWIL1) piRISC loaded with piRNA #1 (30 nt) (assay: pre-steady-state target cleavage rate (min^-1); MIWI and MILI are mouse PIWI proteins and EfPiwi is from a freshwater sponge; tags in brackets are library labels; higher = faster piRNA-guided slicing of the target). Conditions: guide: piRNA #1 5'p-UGAGGUAGUAGGUUGUAUAGUAUCCAGAGG; auxiliary factor: 500 nM mouse GTSF1.
Outline: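 In HEPES–potassium acetate buffer at 33 °C, […] transcribed, DNA-blocked target RNA library was mixed with 1 nM active affinity-purified piRISC carrying one synthetic guide, with or without 500 nM GTSF1 partner protein, for 0–8 or 0–960 min. Uncleaved targets were sequenced and normalised to depth and to weakly complementary targets; three trials were pooled and k3 was capped at 0.0001 min^-1. The pre-steady-state cleavage rate followed from a burst-and-steady-state fit.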
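Note: 1 nM active piRISC with 0.1 nM target library at 33 °C single turnover.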

In order of rising “pre-steady-state target cleavage rate” value:
1. GGUCUGGAUACUAUACAACCUACUCCUCA  0.00309 ± 0.0017
2. GGAGAGGAUACUAUACAACCUACUUCCUGA  0.00407 ± 0.0024
3. GGAGACCUAUCUAUACAACCUUCUACGUCA  0.11 ± 0.017
4. GGAGACCUUACUAUUCAACCUACUUCCUCA  0.181 ± 0.025
5. GGAGAGGAUACUUUACAACCUACUAGCUCA  0.242 ± 0.058
6. GCUCUGGAUACAAUACAACCUAGUACCUCA  0.314 ± 0.047
7. CCUCUGGAUACUAUACAACGUACUUCCUCA  0.316 ± 0.043
8. GGAGUGGAUACUUUAGAACCUACUACCUCA  0.435 ± 0.038
9. GGAGACCAUACUAUACAACCUGCUACCUCA  0.46 ± 0.027
10. GGAGACCUAUCUAUCCAACCUACUACCUCA  0.485 ± 0.046
11. GGAGACCUAUCUAUACAACCUACUACCUGA  0.516 ± 0.057
12. GCUCUGGAUACAAUACAACCUACUUCCUCA  0.575 ± 0.035
13. GGAGAGGAUACUAUACAACCCACUACCUCA  0.658 ± 0.034
14. GGAGACCUAACUAUACAACCUACUACCUCCA  0.849 ± 0.061
15. GGAGACCUUACUAUACAACCUACUAUCUCA  1.05 ± 0.095
16. GGAGAGGAUGACUAUACAACCUACUACCUCA  1.08 ± 0.091
17. GGUCUGGAUACUUUACUACCUACUACCUCA  1.09 ± 0.091
18. CCUCUGGAUACUAUACAACCUACUACCGUCA  1.29 ± 0.084
19. GGAGUGGAAACUAUAGAACCUACUACCUCA  1.31 ± 0.072
20. GGACUGGAUACUAUUACAACCUACUACCUCA  1.36 ± 0.11
21. GGAGAGGACACUAUACAACCUACUACCUCA  1.48 ± 0.085
22. GGUCUGGAUACUAGUACAACCUACUACCUCA  1.61 ± 0.12
23. GGACUGGAUUCUAUACAACCUACUACCUCA  1.63 ± 0.11
24. GGUCUGGAAACUAUACAACCUACUACCUCA  1.8 ± 0.12
